The whole screen tested about 310,000 compounds, of which about 2,200 (0.71%) showed an effect of 50% or more. The effect is printed as a negative number. This is one part of the list.

The target in the test is human ether-à-go-go-related gene (hERG) potassium channel (human, UniProt Q12809). The experiment in a line: primary screen, population patch clamp on CHO cells stably expressing hERG.
human ether-à-go-go-related gene (hERG) potassium channel, sequence (Q12809 whole entry, looked up): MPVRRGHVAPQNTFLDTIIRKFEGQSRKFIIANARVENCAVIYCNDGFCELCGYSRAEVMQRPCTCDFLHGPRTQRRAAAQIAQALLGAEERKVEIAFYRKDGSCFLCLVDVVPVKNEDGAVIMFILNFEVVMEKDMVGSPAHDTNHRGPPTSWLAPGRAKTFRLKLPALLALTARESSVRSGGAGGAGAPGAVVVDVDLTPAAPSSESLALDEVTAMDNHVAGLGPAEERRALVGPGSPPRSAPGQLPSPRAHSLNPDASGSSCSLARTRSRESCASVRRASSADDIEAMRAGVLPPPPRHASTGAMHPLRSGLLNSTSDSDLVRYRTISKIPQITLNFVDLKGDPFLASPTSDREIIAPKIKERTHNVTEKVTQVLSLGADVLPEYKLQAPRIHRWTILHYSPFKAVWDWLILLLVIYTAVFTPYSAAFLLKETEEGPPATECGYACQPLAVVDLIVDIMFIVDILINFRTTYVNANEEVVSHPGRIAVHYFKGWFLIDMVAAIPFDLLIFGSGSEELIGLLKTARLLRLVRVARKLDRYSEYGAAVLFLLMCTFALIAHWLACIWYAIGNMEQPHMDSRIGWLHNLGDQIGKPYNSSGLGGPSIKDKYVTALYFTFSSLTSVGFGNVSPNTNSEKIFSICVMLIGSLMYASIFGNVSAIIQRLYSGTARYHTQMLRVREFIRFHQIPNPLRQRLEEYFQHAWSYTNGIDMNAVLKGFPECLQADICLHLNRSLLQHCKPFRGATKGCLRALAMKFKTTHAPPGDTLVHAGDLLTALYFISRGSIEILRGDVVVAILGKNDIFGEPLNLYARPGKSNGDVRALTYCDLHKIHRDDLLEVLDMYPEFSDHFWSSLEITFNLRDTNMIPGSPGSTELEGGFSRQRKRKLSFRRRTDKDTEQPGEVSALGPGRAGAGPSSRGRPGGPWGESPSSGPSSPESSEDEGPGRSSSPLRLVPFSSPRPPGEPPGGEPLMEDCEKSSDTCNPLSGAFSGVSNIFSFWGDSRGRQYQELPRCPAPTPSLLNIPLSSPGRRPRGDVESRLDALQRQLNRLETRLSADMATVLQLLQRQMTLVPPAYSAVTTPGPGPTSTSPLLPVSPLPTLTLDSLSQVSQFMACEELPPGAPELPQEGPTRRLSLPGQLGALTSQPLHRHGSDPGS
`CCCn1nnnc1NCc1c(F)cccc1Cl`: the “hERG current change (%, negative = inhibition) at 1uM” value is 14.8%.
For `CN(C(=O)CSc1nnc(-c2cccnc2)o1)C1CCCCC1` the value was 8.91%; for `CCC(C)Sc1nc2ccccc2c(=O)[nH]1` (centres unmarked), 4.32%; for `COCCOCCn1c(/C=C/c2ccccc2)nc2ccccc21`, 0.416%.
For `C#CCOCCOCCOCCNc1nc(N2CCN(C(=O)Cn3cc(CC(C)O)nn3)CC2)nc(N2CCN(C(=O)[C@H](C)n3cc(CCC[NH+]=C(N)N)nn3)CC2)n1.[Cl-]` (some centres unmarked) the value was 11.9%; for `CCOc1ccc(Br)cc1S(=O)(=O)Nc1ccc(Cl)c(S(=O)(=O)N(CC)c2ccccc2)c1`, 24.9%.
For `Cn1c(=O)c(=O)n(C)c2cc(S(=O)(=O)CCC(=O)Nc3c(F)c(F)c(F)c(F)c3F)ccc21` the value was 12%; for `Cn1c(SCC(=O)Nc2nnc(-c3ccccc3)o2)nnc1C1CC1`, 9.34%.
With `CC(C)C(NC(=O)c1c(F)cccc1F)C(=O)NCc1ccc(S(=O)(=O)N2CCOCC2)cc1` (centres unmarked), the “hERG current change (%, negative = inhibition) at 1uM” value was 3.72%.
For `Cc1sc(NC(=O)CN2CCCC2)nc1-c1ccc2c(c1)CCN2C(=O)c1cccc(F)c1`, the “hERG current change (%, negative = inhibition) at 1uM” value is on record as 9.35%.
For `CCN1C(=O)c2ccccc2Sc2ccc(C(=O)N3CCC4(CC3)OCCO4)cc21` the value was 7.42%.
For `O=C(CSc1nnc(Cc2ccc(Cl)cc2)o1)Nc1ccccc1`, the “hERG current change (%, negative = inhibition) at 1uM” value was 6.02%.
With `COC(=O)C1=C(c2cccc(OCc3ccccc3)c2)C[C@@H]2CC[C@H]1N2C(=O)NCc1ccccc1OC` the figure was 10.6%; with `S=c1[nH]nc(COc2ccc(Cl)cc2)n1Cc1ccco1`, 14.5%; with `Cc1nc2ccc(C(=O)N3CCSCC3)cc2s1`, 7.04%.
For `COc1ccc(N2CCN(C(=O)CCCn3c(=O)c4cccn4c4cccnc43)CC2)cc1` the value was 0.127%; for `O=C(NCc1ccco1)c1nc(-c2ccccc2)n(-c2ccccc2)n1`, 0.641%.
For `COc1ccc(CCNC(=O)c2c(-c3ccccc3)noc2C)cc1OC` the value was 11.3%.
As to `CC(C)CN(C(=O)CN(C)S(=O)(=O)c1ccc(Cl)cc1)C1CCS(=O)(=O)C1` (centres unmarked), the “hERG current change (%, negative = inhibition) at 1uM” value worked out at 1.14%.
In the case of `Cc1ccc(C(=O)N[C@H](C(=O)Nc2sccc2C(N)=O)C(C)C)cc1`, the “hERG current change (%, negative = inhibition) at 1uM” value was 19.1%.
As for `Cl.Nc1nc2nc[nH]c2c(=O)[nH]1`, the “hERG current change (%, negative = inhibition) at 1uM” value amounted to 10.1%.
With `COc1ccccc1Nc1nc(N)nc(CN(C)C2CCCCC2)n1` the figure was -11.7%; with `CCN(CC)c1ccc(NC(=O)c2cc3ccccc3o2)c(C)c1`, 14.8%.

These data come from paper PMC4336329 (PLoS ONE, 2015).
